# From the supplement of paper PMC3334620
# The full ranking holds about 33,000 sequences; the median of “E-score (-0.5 to 0.5)” is about -0.011, and the highest 2% start at about 0.28. Some of the results follow.
# Molecular target: T1, Gcr1 (UniProt P07261)
# T1 sequence: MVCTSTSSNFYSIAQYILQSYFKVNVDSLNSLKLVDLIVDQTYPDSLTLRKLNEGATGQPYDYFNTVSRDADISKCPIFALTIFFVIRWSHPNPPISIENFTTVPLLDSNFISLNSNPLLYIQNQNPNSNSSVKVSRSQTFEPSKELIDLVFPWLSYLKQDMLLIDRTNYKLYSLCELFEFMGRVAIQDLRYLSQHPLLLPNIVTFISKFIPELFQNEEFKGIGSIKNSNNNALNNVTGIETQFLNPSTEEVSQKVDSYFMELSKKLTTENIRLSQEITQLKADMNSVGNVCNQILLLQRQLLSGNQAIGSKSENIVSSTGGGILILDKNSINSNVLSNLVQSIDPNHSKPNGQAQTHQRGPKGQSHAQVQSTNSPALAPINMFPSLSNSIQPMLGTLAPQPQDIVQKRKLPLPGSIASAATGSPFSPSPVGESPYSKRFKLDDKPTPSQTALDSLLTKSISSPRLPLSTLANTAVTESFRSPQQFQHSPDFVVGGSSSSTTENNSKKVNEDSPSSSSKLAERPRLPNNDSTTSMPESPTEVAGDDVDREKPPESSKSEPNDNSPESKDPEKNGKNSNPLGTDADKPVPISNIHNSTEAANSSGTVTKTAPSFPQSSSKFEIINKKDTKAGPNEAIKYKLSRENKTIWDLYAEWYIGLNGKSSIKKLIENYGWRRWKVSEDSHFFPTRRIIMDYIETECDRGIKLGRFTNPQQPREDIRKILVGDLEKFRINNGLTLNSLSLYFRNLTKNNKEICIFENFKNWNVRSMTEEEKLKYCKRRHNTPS
# Experiment: PBM E-score (8-mer binding enrichment) (E-score (-0.5 to 0.5)); higher = stronger / more preferred TF binding; most listed sequences are background and not binding sites
# Conditions: protein concentration: 100 nM; construct: GST-full length
# Description: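 Universal 'all 10-mer' protein binding microarrays (Agilent AMADID 015681) probed with GST-tagged S. cerevisiae TFs (full-length or DBD) made by in vitro transcription/translation (PURExpress), about 100-200 nM. Bound TF was detected with fluorescent anti-GST. Each ungapped 8-mer (which stands for itself and its reverse complement) is scored by the PBM enrichment score (E-score), a modified Wilcoxon-Mann-Whitney statistic from -0.5 to +0.5, computed with the Universal PBM Analysis Suite. Scale: above 0.35 generally sequence-specific binding.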
row,Sequence,PBM E-score
1,TCCCCAGA,0.131
2,ATAGACCA,0.0138
3,ATCACCGA,-0.229
4,TAAGTATA,0.0543
5,AATTCCCT,-0.088
6,GGCACCAC,0.249
7,CATTGCGC,-0.106
8,ATCGAGCG,-0.167
9,TCTACCAA,-0.091
10,ACCCTGGA,0.00042
11,AGGGCAGA,-0.172
12,AATGCAAT,-0.303
13,GGTTGTTA,0.136
14,CGAACCAG,0.074
15,CCCTGTCA,-0.0788
16,AGTCTTCG,-0.124
17,GGGAACGA,-0.0791
18,AATCGGAT,0.0214
19,CCAGTCGA,0.115
20,AAAATTCA,0.15
21,CAAAGGTC,-0.126
22,ACGGTTGA,-0.135
23,AGTACCCG,-0.074
24,ACAGACCT,-0.224
25,GATCTACA,0.147

row,Sequence,PBM E-score
1,GGGTTGGA,-0.0248
2,CATCAAAC,-0.113
3,CAGTGGGA,0.0976
4,GACTGGAA,0.325
5,AGTAAGAT,0.0416
6,AACTCTCA,-0.0547
7,CTCCTGGC,0.0962
8,AAATAGTG,0.203
9,CTTACGGA,0.12
10,CGGAGAAG,-0.0611
11,CCCACAAA,0.305
12,CGCGCTGC,0.225
13,CCCGCTGC,0.0882
14,GCGCTGCA,0.141
15,GTCCCGCA,0.0217
16,CTGGAACA,-0.0357
17,CAGATAAG,0.0134
18,GGTATTCA,0.0919
19,CACCTGTC,-0.112
20,AGCACTCC,0.0725
21,ACAGGGCA,-0.222
22,GTCTTATA,-0.00394
23,CTCGATCA,-0.0217
24,ACGCGAAA,-0.0332
25,GACTCACA,-0.206

row,Sequence,PBM E-score
1,CTGAACAG,0.049
2,AGTCACTC,-0.0527
3,AGTTGATA,-0.0564
4,GACGCTAA,-0.0744
5,GCACTGCA,-0.362
6,ATGGGATC,0.19
7,CCCCACCA,0.254
8,AGAGTCGA,-0.21
9,CTGACGAA,-0.103
10,CGTCCTCC,-0.035
11,AGCTAAAC,-0.126
12,CGTTATGA,-0.0359
13,AAAACTGT,-0.134
14,AAACTTAC,0.0163
15,ATCTAGTC,0.0902
16,GCCGGCTA,-0.145
17,CGGTCACG,-0.114
18,ACGGTCCC,-0.0433
19,AGCAAACC,-0.216
20,AGCAGCTC,0.16
21,ATGGGTCC,0.155
22,AGGGCTAC,-0.0252
23,ATATCCCC,-0.108
24,GGGTCACC,0.145
25,AGCGGGAG,-0.0166

row,Sequence,PBM E-score
1,CAGATCGC,-0.199
2,GCGGAAGA,-0.195
3,CGCTCATC,0.111
4,GCACGCTA,-0.0819
5,CTTGGTCA,-0.0414
6,ACCTGGTA,0.0521
7,ATCATTAG,0.154
8,GAACAAGC,-0.127
9,GAAAAGCC,-0.326
10,ATCATACA,0.162
11,ACAGCTAA,-0.226
12,ATTAGGTG,0.154
13,ATTTTAGC,0.0912
14,GGATTTCA,0.0442
15,AGGTCAGG,-0.0515
16,ATCTGGAC,0.133
17,GCGGCCCC,0.19
18,TGTTTAAA,0.198
19,CGCGTGTC,-0.133
20,TATGGGCA,0.0968
21,GCAGAACA,-0.0469
22,GTACGAAC,-0.109
23,TCCTTGCA,-0.117
24,AGCCCCCA,0.0591
25,GTTTCGAA,0.0056

row,Sequence,PBM E-score
1,AGGTCTCG,0.0158
2,GGGCCTTA,-0.112
3,GCCGGGCC,0.00663
4,ACGAATAA,-0.0743
5,ACCAACCG,-0.134
6,GCGAGGCC,-0.114
7,GACCAGAA,0.131
8,CACTTGAG,0.00447
9,GTAAAGGA,0.149
10,ACCCCCTA,-0.249
11,AGGGACAA,-0.168
12,ACGATCGC,0.0424
13,AGCGAACA,-0.217
14,CTACTGGA,0.255
15,TCCGTGAA,-0.0227
16,ATGTCAGA,-0.116
17,AGATATCC,-0.0693
18,AAATGATT,0.124
19,CCCCTGGA,-0.0352
20,ACGCGCAT,-0.0657
21,CAATAAAG,0.164
22,GCTTAGAC,-0.144
23,ATGAGTGG,0.0935
24,CCAAGGCC,-0.205
25,GCGAATCA,-0.0143

row,Sequence,PBM E-score
1,TAAGAGCA,0.0308
2,ATAACGTA,-0.08
3,ATGCTGTG,-0.0455
4,CGCCGGGA,-0.0536
5,GCGCTCCC,0.078
6,CATGTATA,-0.0312
7,ATGTTTGA,0.00526
8,TCCTGGCA,0.0466
9,CACGAACA,0.119
10,AAGAATAC,0.186
11,ATACTCGG,-0.114
12,AGTTGAAC,-0.00272
13,TGCTCACA,-0.0462
14,AGTGTTTC,0.0569
15,AGATAGCT,-0.131
16,CCGAGGAG,0.00319
17,CGGAGTAG,0.0642
18,GACAATTA,0.069
19,ACGAGGCG,-0.0531
20,CAATGGTA,0.0267
21,CTGGCTAA,0.0499
22,AGGGAGCC,0.296
23,ACAATCAC,-0.201
24,CGGGGACG,-0.0108
25,AGTGTAAC,-0.186

row,Sequence,PBM E-score
1,GAAGAATA,0.0261
2,CACGCACA,-0.151
3,GCCACACA,0.123
4,ACTGTGTC,-0.117
5,ACGAACAA,-0.00539
6,AATTAGGG,-0.012
7,AAGGCCCC,0.0928
8,GTCGGGGA,0.102
9,GACTCTGA,-0.0504
10,TGGATGAA,-0.0905
11,CGCCCCCG,-0.00755
12,ACTTACGC,-0.118
13,GCGCACGC,-0.062
14,ATTCGAAC,0.0584
15,GCAGGCGC,-0.0504
16,ACCAATTA,0.168
17,GACAACAC,-0.0973
18,AAGCGCAT,0.141
19,CGAGTCGC,-0.257
20,CCCCCCTC,-0.328
21,TATAGTAA,0.0601
22,TAGTACGA,0.00193
